Source: PMC4336329 (PLoS ONE, 2015)
About 14,000 (4.5%) of roughly 310,000 compounds showed an effect of 50% or more. Effects have a minus sign here. This is one part of the list.

These compounds were tested against human ether-à-go-go-related gene (hERG) potassium channel (human, UniProt Q12809) (assay: primary screen, population patch clamp on CHO cells stably expressing hERG).
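Also: peak tail current of the secondary pulse compared with the same well before compound.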

Chain of human ether-à-go-go-related gene (hERG) potassium channel (Q12809 whole entry, looked up): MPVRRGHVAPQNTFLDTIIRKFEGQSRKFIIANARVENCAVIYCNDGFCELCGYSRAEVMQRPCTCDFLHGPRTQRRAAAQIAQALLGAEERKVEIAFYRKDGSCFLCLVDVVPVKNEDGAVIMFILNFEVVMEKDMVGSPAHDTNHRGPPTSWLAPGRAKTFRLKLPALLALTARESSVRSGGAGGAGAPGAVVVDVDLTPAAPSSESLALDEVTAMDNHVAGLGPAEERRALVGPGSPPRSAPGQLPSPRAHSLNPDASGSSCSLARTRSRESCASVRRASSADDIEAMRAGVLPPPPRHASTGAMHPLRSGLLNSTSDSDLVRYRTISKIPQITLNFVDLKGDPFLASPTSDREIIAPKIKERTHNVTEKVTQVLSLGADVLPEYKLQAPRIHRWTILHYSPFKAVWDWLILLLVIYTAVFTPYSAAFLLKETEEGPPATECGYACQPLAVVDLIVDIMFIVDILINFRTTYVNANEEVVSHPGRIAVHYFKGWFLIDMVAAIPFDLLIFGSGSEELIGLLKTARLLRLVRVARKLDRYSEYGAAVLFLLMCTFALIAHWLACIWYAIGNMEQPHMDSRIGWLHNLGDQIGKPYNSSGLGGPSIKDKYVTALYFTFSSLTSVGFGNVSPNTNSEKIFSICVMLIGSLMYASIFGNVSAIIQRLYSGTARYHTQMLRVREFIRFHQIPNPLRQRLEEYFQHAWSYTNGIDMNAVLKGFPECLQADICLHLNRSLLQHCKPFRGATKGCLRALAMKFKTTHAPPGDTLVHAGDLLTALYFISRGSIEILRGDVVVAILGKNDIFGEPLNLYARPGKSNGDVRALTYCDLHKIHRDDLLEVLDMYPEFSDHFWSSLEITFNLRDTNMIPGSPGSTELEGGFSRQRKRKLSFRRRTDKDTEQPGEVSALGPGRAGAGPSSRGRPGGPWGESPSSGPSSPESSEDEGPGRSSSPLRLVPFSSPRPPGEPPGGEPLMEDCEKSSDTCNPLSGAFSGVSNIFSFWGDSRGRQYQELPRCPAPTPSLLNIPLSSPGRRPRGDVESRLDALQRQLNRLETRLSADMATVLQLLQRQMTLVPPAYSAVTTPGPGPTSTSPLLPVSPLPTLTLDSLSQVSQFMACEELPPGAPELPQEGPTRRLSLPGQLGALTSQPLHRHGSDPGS

Which “hERG current change (%, negative = inhibition) at 10uM” value does the source give for `COc1ccccc1-c1cc(C(=O)N/N=C\c2cn(C)nc2C)c2ccccc2n1` here?
The value was -15.2%.

For `O=C1NC(c2cccs2)C(C(=O)c2ccccc2)C(O)(C(F)(F)F)N1` (centres unmarked), which “hERG current change (%, negative = inhibition) at 10uM” value is on record?
Its value is 8%.

Which “hERG current change (%, negative = inhibition) at 10uM” value does the source give for `CCOC(=O)C1C(c2ccc(OC)c(OC)c2)c2c([nH][nH]c2=O)CC1(C)O` (centres unmarked) here?
The value was 3.61%.

For `Cc1ccc(C)c(NC(=O)Cc2csc(-c3ccccc3)n2)c1`, which “hERG current change (%, negative = inhibition) at 10uM” value is on record?
Its value is -3.58%.

With `Cn1cc(Br)c(C(=O)N/N=C/c2cccc(OC3CSC3)c2)n1` as the compound, how does the “hERG current change (%, negative = inhibition) at 10uM” value read?
The value was -2.36%.

Which “hERG current change (%, negative = inhibition) at 10uM” value does the source give for `CCN(CC)S(=O)(=O)c1cccc(-n2c(O)c(C=Nc3ccccc3C(=O)O)c3ccccc3c2=O)c1` here?
The value was 0.00558%.

With `CC(=O)c1ccc(NS(=O)(=O)c2ccc3ccccc3c2)cc1` as the compound, how does the “hERG current change (%, negative = inhibition) at 10uM” value read?
The value was -0.55%.

Which “hERG current change (%, negative = inhibition) at 10uM” value does the source give for `CCOP(=O)(c1ccc(N(C)C)cc1)C(O)c1c(Cl)cccc1Cl` (centres unmarked) here?
Its value is -3.45%.

With `O=C(CSc1nnc(CNC(=O)c2c(F)cccc2F)o1)NCc1ccc(F)cc1` as the compound, how does the “hERG current change (%, negative = inhibition) at 10uM” value read?
Its value is 5.93%.

`CCCOc1ccccc1OCC(=O)N1CCN(S(=O)(=O)c2ccc(Cl)cc2)CC1` was tested. Which “hERG current change (%, negative = inhibition) at 10uM” value did it give?
The value was -17%.

For `Cn1cccc1/C=N/NC(=O)c1ccncc1`, which “hERG current change (%, negative = inhibition) at 10uM” value is on record?
Its value is 8.02%.

Which “hERG current change (%, negative = inhibition) at 10uM” value does the source give for `CC(=N\NC(=O)c1cc(Br)ccc1O)/C(=N/O)C(=O)Nc1ccccc1` here?
Its value is 48.4%.

`COC(=O)CSc1nnc2cc(C)c3ccccc3n12` was tested. Which “hERG current change (%, negative = inhibition) at 10uM” value did it give?
The value was -18.6%.

Which “hERG current change (%, negative = inhibition) at 10uM” value does the source give for `CCOc1ccccc1NC(=O)Cn1c(=O)oc2ccccc21` here?
The value was 10.7%.

How did the “hERG current change (%, negative = inhibition) at 10uM” value turn out when `Cc1ccc(C)c(NC(=O)CCC(=O)NNS(=O)(=O)c2ccc(Cl)cc2)c1` was run?
Its value is 0.59%.

Which “hERG current change (%, negative = inhibition) at 10uM” value does the source give for `CCOC(=O)c1[nH]c(C)c(/C(O)=C2\C(=O)C(=O)N(CCCN(C)C)C2c2cccnc2)c1C` (centres unmarked) here?
Its value is 4.27%.

For `COc1cccc(OCc2nnc(SCC(=O)OC3CCCCC3)n2C)c1`, which “hERG current change (%, negative = inhibition) at 10uM” value is on record?
The value was -13.2%.

`CCN1CCN(C(c2ccccc2)c2sc3nc(C)nn3c2O)CC1` (centres unmarked) was tested. Which “hERG current change (%, negative = inhibition) at 10uM” value did it give?
Its value is -9.32%.

`Cc1cc(C)n2nc(-c3cnn(C)c3C(F)(F)F)cc2n1` was tested. Which “hERG current change (%, negative = inhibition) at 10uM” value did it give?
Its value is 2.23%.

`Cn1c(=O)[nH]c(=O)c2c1nc(N1CCCCCC1)n2CCCSc1nnnn1-c1ccccc1` was tested. Which “hERG current change (%, negative = inhibition) at 10uM” value did it give?
The value was -30.4%.

Which “hERG current change (%, negative = inhibition) at 10uM” value does the source give for `O=C(c1ccc(F)c(F)c1)N1CCCc2ccccc21` here?
The value was 0.0993%.

With `O=C(Cn1cnc2cc([N+](=O)[O-])ccc2c1=O)Nc1ccccc1-c1ccccc1` as the compound, how does the “hERG current change (%, negative = inhibition) at 10uM” value read?
The value was -2.95%.

For `COc1ccc(CCNC(=O)Cn2c(=O)c3cccn3c3cccnc32)c(OC)c1OC`, which “hERG current change (%, negative = inhibition) at 10uM” value is on record?
The value was 15%.

Which “hERG current change (%, negative = inhibition) at 10uM” value does the source give for `Cc1ccc(S(=O)(=O)N2CCCC(C(=O)NC3CCCC3)C2)cc1` (centres unmarked) here?
The value was 10.3%.

With `CCOC(=O)c1[nH]c(C)c(/C(O)=C2\C(=O)C(=O)N(CCCN(CC)CC)C2c2cccnc2)c1C` (centres unmarked) as the compound, how does the “hERG current change (%, negative = inhibition) at 10uM” value read?
Its value is -1.32%.

How did the “hERG current change (%, negative = inhibition) at 10uM” value turn out when `COc1ccccc1CNC(=O)C1CCCCN1S(=O)(=O)c1ccccc1` (centres unmarked) was run?
The value was -46.4%.

How did the “hERG current change (%, negative = inhibition) at 10uM” value turn out when `O=C(/C=C/c1ccccc1Cl)N1CCOCC1` was run?
The value was 13.5%.

`CCOC(=O)c1sc(NC(=O)CCc2ccccc2)nc1C` was tested. Which “hERG current change (%, negative = inhibition) at 10uM” value did it give?
The value was 27%.

Which “hERG current change (%, negative = inhibition) at 10uM” value does the source give for `CCN(CC)CCCNc1ccc(-c2nnc(-c3ccc(OCC(C)C)cc3)o2)cn1` here?
The value was -46.3%.

How did the “hERG current change (%, negative = inhibition) at 10uM” value turn out when `O=C(C1CC1)N(CCN(Cc1ccccc1)C(=O)C1CC1)Cc1ccccc1` was run?
The value was -28.9%.

`CC(=O)c1ccc(OCC(C)C)c(Cc2c(O)nc(N)[nH]c2=O)c1` was tested. Which “hERG current change (%, negative = inhibition) at 10uM” value did it give?
The value was -2.07%.

With `O=C(O)CNc1ccccc1C(=O)O` as the compound, how does the “hERG current change (%, negative = inhibition) at 10uM” value read?
The value was -4.04%.

`CC(C)c1ccc(S(=O)(=O)N2CCC(C(=O)NCC3(N(C)C)CCCCC3)CC2)cc1` was tested. Which “hERG current change (%, negative = inhibition) at 10uM” value did it give?
Its value is -54.4%.

`CCN(CC)C(=O)Cn1cc(SCC(=O)NC)c2ccccc21` was tested. Which “hERG current change (%, negative = inhibition) at 10uM” value did it give?
Its value is -9.06%.

With `O=C(c1cc2n(n1)C(C(F)(F)F)CC(c1ccc(F)cc1)N2)N1CCCC1` (centres unmarked) as the compound, how does the “hERG current change (%, negative = inhibition) at 10uM” value read?
Its value is 10.4%.

For `COC(=O)CN(C#N)c1nc(C)cc(C)n1`, which “hERG current change (%, negative = inhibition) at 10uM” value is on record?
The value was -1.38%.

How did the “hERG current change (%, negative = inhibition) at 10uM” value turn out when `Cc1cccc(/C=C2\CCC(C3CCCC3)C2=O)c1` (centres unmarked) was run?
Its value is -7.29%.

With `Cc1cccc(CN2C3=NCCCN3c3ccccc32)c1.Cl` as the compound, how does the “hERG current change (%, negative = inhibition) at 10uM” value read?
Its value is -57.4%.

Which “hERG current change (%, negative = inhibition) at 10uM” value does the source give for `CCc1cc(=O)oc2cc(C)cc(OCC(=O)C(C)(C)C)c12` here?
The value was 2.5%.

Which “hERG current change (%, negative = inhibition) at 10uM” value does the source give for `COC(=O)/C=C1\OC(c2ccccc2)=CC1=O` here?
Its value is -5.83%.

How did the “hERG current change (%, negative = inhibition) at 10uM” value turn out when `CN1CCC2(CC1)C(C#N)=C(N)NC(S)=C2C#N` was run?
The value was 12.9%.

How did the “hERG current change (%, negative = inhibition) at 10uM” value turn out when `Cc1ccccc1OCCOC(=O)c1cc(S(=O)(=O)N2CCCCC2)ccc1N1CCOCC1` was run?
Its value is -8.34%.

How did the “hERG current change (%, negative = inhibition) at 10uM” value turn out when `Cc1ccccc1C(=O)N1CCN(c2ccc(NC(=O)c3cccnc3Cl)cc2)CC1` was run?
The value was 13%.

Which “hERG current change (%, negative = inhibition) at 10uM” value does the source give for `CCOc1ccc(NC(=O)c2ccc(Cn3nc(C)cc3C)o2)cc1` here?
The value was -34.5%.
